From PubChem BioAssay AID686979 (National Center for Advancing Translational Sciences (NCATS), 2013)
The campaign covered roughly 420,000 compounds. About 50,000 (12%) were called active. The shares of active, inactive and inconclusive entries below differ from those in the screen. Calls come from the whole dose curve; as a rule, active = well fitted inhibition curve with a large enough effect; inconclusive = small, poorly fitted or top-dose-only effect; inactive = flat fitted curve, though single readings scatter. No potency is given beside an inconclusive call; the fits are too rough.

Assay: qHTS for Inhibitors of human tyrosyl-DNA phosphodiesterase 1 (TDP1): qHTS in cells in presence of CPT; note: nearly all actives have a fitted effect of over 55% in size
Settings: chicken DT40 Tdp1-/-;hTDP1 cells + 20 nM CPT, ATP luminescence, 48 h; activity change, negative = growth inhibition: at 46.2 µM (top of the series)
In short: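 Chicken DT40 Tdp1-/- cells complemented with human TDP1, 400 cells/well, exposed to compounds plus 20 nM camptothecin for at least 48 h at 37 C; viability read as ATP content by CellTiter-Glo luminescence.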
% is set by controls: 0 for no effect and ±100 for the full control effect; potency is the fitted concentration of half-maximal effect; tags give direction and shape of the fitted curve.

SMILES	Potency	activity change, negative = growth inhibition
CCOc1ccc(OCCC(=O)OCC(=O)N2CCN(c3ccc(OC)cc3)CC2)cc1	inactive	
CCOC(=O)c1c(NC(=S)N2CCOCC2)sc2c1CCN(C(=O)OCC)C2	inconclusive [inhibitor, single point]	
Cc1cc(=O)[nH]c(N/N=C/CCc2ccccc2)n1	inactive	
O=C1Nc2cc(C(=O)NCCN3CCCCCC3)ccc2S/C1=C\c1ccccc1	active: 13 µM	
CCCOc1ccc(-c2nc(SCc3ccccc3)[nH]c(=O)c2C#N)cc1OC	inconclusive [inhibitor, single point]	
CCC(Oc1ccccc1)C(=O)NCc1ccc(S(N)(=O)=O)cc1 (stereo not given)	inactive	
C#CCN(C[C@H]1[C@H](OC(=O)NCc2ccccc2)[C@H](OC(=O)NCc2ccccc2)C[C@@H](C(=O)OC)[C@H]1C(=O)OC)S(=O)(=O)c1ccc(C)cc1	inactive	
CCc1nc2ccc(Cc3ccc4nc(CC)[nH]c4c3)cc2[nH]1	active: 13 µM	
CCOc1nc(N=C(N)N)nc2c(C)cccc12	active: 16.4 µM	
O=C(Nc1nnc([C@@H]2C[C@H](O)[C@@H](CO)O2)s1)NC(c1ccccc1)c1ccccc1	inconclusive [inhibitor, single point]	
CCOC(=O)CC1(CC(=O)OCC)NC(=O)c2c(C)sc(C(=O)OCC)c2N1	inconclusive [inhibitor, single point]	
O=C(CN1CCN(S(=O)(=O)c2ccc(F)cc2)CC1)N1CCOCC1	inactive	
O=C1C(=O)N(Cc2ccncc2)C(c2ccccc2F)/C1=C(\O)c1ccc2c(c1)OCCO2 (stereo not given)	inactive	
COc1ccc(O)c(CN2CCC3(CC2)c2ccccc2[C@@H](NC(=O)c2cccc(F)c2)[C@@H]3OC)c1		inactive: -6.09% [at 9.04 µM]
O=c1[nH]c2ccccc2c2nc(-c3cccc(S(=O)(=O)N4CCCC4)c3)nn12	inconclusive [inhibitor, single point]	
Cc1ccc(S(=O)(=O)N2CCCCC2CCNC(=O)C(=O)NC2CCCC2)cc1 (stereo not given)	inconclusive [inhibitor, single point]	
COc1ccc(C(=O)C[C@@H]2OC[C@H](C)N2S(=O)(=O)c2ccc(C)cc2)cc1OC	inconclusive [inhibitor, single point]	
CCOC(=O)c1c(C)oc2nc(C)nc(NCCCN3CCN(c4ccccc4OC)CC3)c12	inconclusive [inhibitor, single point]	
CCC(C)(C(=O)NC1CCCC1)N(C)C(=O)c1ccccn1 (stereo not given)	inactive	
O=C(CSc1nc(-c2ccc(Cl)cc2)[nH]c(=O)n1)Nc1cccc(Cl)c1	inactive	
CC(C)(C)c1cc(CN(CCO)CCO)c(O)c(C(C)(C)C)c1	inconclusive [inhibitor, single point]	
O=C(CSc1ccncc1)NCC1Cc2cccc(-c3cncnc3)c2O1 (stereo not given)	inconclusive [inhibitor, single point]	
O=[N+]([O-])c1ccc2c(c1)C(N1CCN(CCO)CC1)Cc1ccc(F)cc1S2 (stereo not given)	inconclusive [inhibitor, single point]	

SMILES	Potency	activity change, negative = growth inhibition
CCOc1ccc(C(=O)NCC(C)NC(=O)c2ccc(OCC)cc2)cc1 (stereo not given)	inactive	
O=C(C[C@H]1CC[C@H]2[C@@H](COC[C@@H](O)CN2Cc2cc(F)ccc2F)O1)NCc1ccc(Cl)cc1	inconclusive [inhibitor, single point]	
O=C(Nc1ccc(F)cc1)C(c1cc2ccccc2o1)N1CCN(c2cccc(C(F)(F)F)n2)CC1 (stereo not given)	inconclusive [inhibitor, single point]	
CCOc1ccc(S(=O)(=O)N/N=C(\C)c2ccc(Cl)c(Cl)c2Cl)cc1	inactive	
COc1ccc(C(C(=O)Nc2ccc3c(c2)OCO3)N(C)C(=O)Cc2c[nH]c3ccccc23)cc1 (stereo not given)	active: 18.4 µM	
N#CC1=C(N)n2c(s/c(=C\c3ccco3)c2=O)=C(C#N)C1c1ccco1 (stereo not given)	inconclusive [inhibitor, single point]	
O=C(CN1CCc2ccccc2C1)Nc1ccccc1C(=O)NC1CC1	inactive	
COc1ccc(S(=O)(=O)N2CCCCC2)cc1NC(=O)c1ccc(Cl)nc1	inconclusive [inhibitor, single point]	
Cc1cccc2c1-c1sc(C(=O)Nc3ccccc3N3CCN(C)CC3)cc1CO2	active: 18.4 µM	
CCCCOc1ccc(OC(=O)Nc2cc(Cl)ccc2OC)cc1	active: 18.4 µM	
O=c1c2ccccc2oc2ccc(C#CC3(O)CCCCC3)cc12	inconclusive [inhibitor, single point]	
CCOc1ccc(CNCCN2CCCC2)cc1	inconclusive [inhibitor, single point]	
COc1ccc(C(=O)N2CCC(c3ccccc3)CC2)c(OC)c1OC	inactive	
Cc1ccc(OCC(=O)N(Cc2ccc(N(C)C)cc2)CC2CCCO2)cc1C (stereo not given)	active: 14.6 µM	
CC(C)Cn1nc(NC(=O)c2cccs2)c2cc3ccccc3nc21	inconclusive [inhibitor, single point]	
Cc1cc(C)cc(N=c2c([N+](=O)[O-])nn(-c3ccc(Cl)cc3)n2O)c1	active: 9.2 µM	
CCN1C(=O)[C@H]2[C@H]3CN=C(SCc4ccccc4)N3[C@@](Cc3ccccc3)(C(=O)OC)[C@H]2C1=O	inconclusive [inhibitor, single point]	
O=C(NCc1ccccc1)C1=C[C@@H](c2ccc(Br)cc2)C[C@@H](OCCCCO)O1	inconclusive [inhibitor, single point]	
COc1ccc(S(=O)(=O)N2CC(C(=O)O)Oc3ccccc32)cc1 (stereo not given)	inactive	
Cc1ccc(CNC(=O)CCCn2c(=O)c3ccccc3n(Cc3ccccc3Cl)c2=O)cc1	inactive	
CCCCOc1ccc(NC(=O)c2cc3c(n(-c4ccc(Cl)cc4)c2=O)CCCC3=O)cc1	inactive	
CS(=O)(=O)c1cccc(C(=O)Nc2ccc(-c3nc4ccccc4[nH]3)cc2)c1	active: 8.2 µM	
